Assay results from the supplement of paper PMC8285479.
Counter-ions that a name gives are not always drawn. ± gives the standard deviation of the averaged measurements. In all, about 1,900 compounds were measured (“normalised cell viability (NPI; 0 = phenylarsine oxide control, 1 = DMSO control)”: median about 1, lowest 2% from about 0.039 on). This is one part of the list.

System: NCI-H1944
Assay: normalised cell viability (NPI; 0 = phenylarsine oxide control, 1 = DMSO control) (fraction of DMSO control); NCI-H1944 is a non-small cell lung cancer line; higher = more viable cells (less compound toxicity)
Conditions: 6 days
[1] = glucocorticoid arm: hydrocortisone 2.75 uM co-treatment, compound 1 µM
[2] = glucocorticoid arm: hydrocortisone 2.75 uM co-treatment, compound 5 µM
[3] = glucocorticoid arm: hydrocortisone 2.75 uM pre-treated 2 days and continued, compound 1 µM
[4] = glucocorticoid arm: hydrocortisone 2.75 uM pre-treated 2 days and continued, compound 5 µM
[5] = glucocorticoid arm: vehicle, compound 1 µM
[6] = glucocorticoid arm: vehicle, compound 5 µM
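Further: CTB read-out in 384-well plates, mean of triplicate wells, normalised per plate against 1 µM phenylarsine oxide and 0.1% DMSO, compounds added 24 h after seeding.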

SMILES | normalised cell viability [1] | normalised cell viability [2] | normalised cell viability [3] | normalised cell viability [4] | normalised cell viability [5] | normalised cell viability [6]
COc1cc(CC(C)N)c(OC)cc1I (racemic) [(±)-DOI hydrochloride] | 1.01 ± 0.01 | 0.983 ± 0.023 | 0.998 ± 0.013 | 1.02 ± 0.01 | 0.998 ± 0.0035 | 0.994 ± 0.004
N#C/C(=C\c1ccc(O)c(O)c1)C(N)=S [Tyrphostin 47] | 0.9827 ± 0.0031 | 0.995 ± 0.0056 | 1 ± 0.027 | 0.9963 ± 0.0063 | 0.98 ± 0.0044 | 0.9767 ± 0.0074
CCCC[N+]1(C)[C@@H]2C[C@@H](OC(=O)[C@H](CO)c3ccccc3)C[C@H]1[C@@H]1O[C@@H]12 (single isomer, unassigned; (-)) [(-)-Scopolamine,n-Butyl-, bromide] | 1.017 ± 0.0058 | 1.02 ± 0.026 | 0.88 ± 0.21 | 1.03 ± 0.011 | 1.01 | 1.007 ± 0.0058
C1CN1c1nc(N2CC2)nc(N2CC2)n1 [Triethylenemelamine] | 1.023 ± 0.0058 | 0.775 ± 0.022 | 1.017 ± 0.0058 | 0.989 ± 0.015 | 0.993 ± 0.0082 | 0.273 ± 0.028
COc1ccc(OC)c(C(O)C(C)N)c1 (centres undefined) [Methoxamine hydrochloride] | 1.013 ± 0.0058 | 1.01 ± 0.024 | 1.02 ± 0.011 | 0.997 ± 0.022 | 1.023 ± 0.0058 | 1.02 ± 0.023
CCCCC/C=C\C/C=C\C/C=C\C/C=C\CCCC(=O)NCC(=O)O [N-arachidonylglycine] | 0.9867 ± 0.0049 | 1.01 ± 0.025 | 1.003 ± 0.0064 | 0.9935 ± 0.005 | 0.994 ± 0.017 | 1 ± 0.014
C/C(O)=C(\C#N)C(=O)Nc1cc(Br)ccc1Br | 0.976 ± 0.018 | 0.928 ± 0.026 | 0.9763 ± 0.0055 | 1 ± 0.085 | 0.993 ± 0.0078 | 0.997 ± 0.013
Cc1ccccc1-n1c(Cn2ncc3c(N)ncnc32)nc2cccc(C)c2c1=O | 0.9987 ± 0.0099 | 0.995 ± 0.026 | 1 ± 0.025 | 1.02 ± 0.015 | 0.99267 ± 0.00058 | 0.982 ± 0.012
C[C@@]12C(=O)OC(=O)[C@]1(C)[C@H]1CC[C@@H]2O1 [Cantharidin] | 0.9967 ± 0.0035 | 0.00641 ± 0.0033 | 1.05 ± 0.021 | 0.12 ± 0.057 | 0.9873 ± 0.0032 | 0.00459 ± 0.0027
CCCC(C)(COC(N)=O)COC(=O)NC(C)C (centres undefined) [Carisoprodol] | 0.994 ± 0.019 | 0.997 ± 0.012 | 1.01 ± 0.014 | 0.991 ± 0.0014 | 1.01 | 1.013 ± 0.0058
COc1ccc2c3c1O[C@H]1C(=O)CC[C@@]4(O)C(C2)N(CC2CC2)CCC314 (some centres undefined) [3-Methoxynaltrexone hydrochloride] | 0.9917 ± 0.0068 | 0.99 ± 0.018 | 0.985 ± 0.013 | 1.02 ± 0.07 | 0.9977 ± 0.0025 | 0.998 ± 0.013
Cc1sc2c(c1C)C(c1ccc(Cl)cc1)=NC(CC(N)=O)c1nnc(C)n1-2 (centres undefined) | 0.9993 ± 0.0092 | 0.996 ± 0.023 | 0.9503 ± 0.0067 | 0.964 ± 0.028 | 0.958 ± 0.037 | 0.826 ± 0.015
NC(CP(=O)(O)O)C(=O)O (racemic) [(±)-2-Amino-3-phosphonopropionic acid] | 0.993 ± 0.0066 | 0.9903 ± 0.0093 | 1.005 ± 0.0087 | 1 ± 0.013 | 0.9877 ± 0.0049 | 0.998 ± 0.013
NC1CCc2cc(O)c(O)cc2C1 (centres undefined) [6,7-ADTN hydrobromide] | 1.001 ± 0.009 | 1.01 ± 0.011 | 0.992 ± 0.022 | 1.002 ± 0.0068 | 0.98433 ± 0.00058 | 0.9887 ± 0.0059
